In PubChem BioAssay AID1745853 (National Center for Advancing Translational Sciences (NCATS), 2022):
The list shows a part of the results. Shown are side measurements of this screen, not its main read-out; they come without a call.

Key:
Experiment in all cases: Primary Screen for Target Class Profiling of Small Molecule Inhibitors of Methyltransferases
[1] = molecular target: Glycine N-methyltransferase (Homo sapiens) (UniProt Q14749); settings: purified enzyme, MTase-Glo SAH luminescence; measured here: GNMT inhibition; at 40 µM; stronger effect = lower value
Outline: (§1)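 Each enzyme was assayed with SAM and its substrate. SAH formation detected by MTase-Glo luminescence; single-point 40 uM screen[…].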

[2] = molecular target: Guanidinoacetate N-methyltransferase (Homo sapiens) (UniProt Q14353); settings: purified enzyme, MTase-Glo SAH luminescence; measured here: GAMT inhibition; at 40 µM; stronger effect = lower value
Outline: as §1

[3] = molecular target: Histamine N-methyltransferase (Homo sapiens) (UniProt P50135); settings: purified enzyme, MTase-Glo SAH luminescence; measured here: HNMT inhibition; at 40 µM; stronger effect = lower value
Outline: as §1

[4] = molecular target: Nicotinamide N-methyltransferase (Homo sapiens) (UniProt P40261); settings: purified enzyme, MTase-Glo SAH luminescence; measured here: NNMT inhibition; at 40 µM; stronger effect = lower value
Outline: as §1

[5] = molecular target: Phenylethanolamine N-methyltransferase (Homo sapiens) (UniProt P11086); settings: purified enzyme, MTase-Glo SAH luminescence; measured here: PNMT inhibition; at 40 µM; stronger effect = lower value
Outline: as §1
% is set by controls: 0 for no effect and ±100 for the full control effect.

`CC(CNC(=O)Cn1ccc2cc(S(=O)(=O)N3CCCCC3)ccc21)c1ccccc1` (stereo not given) showed an activity change, negative = inhibition [1] of 1.54%, an activity change, negative = inhibition [2] of -4.76% and an activity change, negative = inhibition [3] of -8.68%. For the same molecule, the activity change, negative = inhibition [4] was -6.75% and the activity change, negative = inhibition [5] was -8.93%.
`CC(=O)OC(CSC1CCC(=O)OC(C)CCC(=O)C1)C(=O)O` (stereo not given) showed an activity change, negative = inhibition [1] of 3.16%, an activity change, negative = inhibition [2] of 6.49% and an activity change, negative = inhibition [3] of 6.08%. For the same molecule, the activity change, negative = inhibition [4] was -6.49% and the activity change, negative = inhibition [5] was 5.07%.
`CC(C)(C)c1ccc(C(O)CCCN2CCC(C(O)(c3ccccc3)c3ccccc3)CC2)cc1` (stereo not given) was tested, and the activity change, negative = inhibition [1] was 2.35%, the activity change, negative = inhibition [2] was 9.43% and the activity change, negative = inhibition [3] was 8.03%. The activity change, negative = inhibition [4] was -8.53% and the activity change, negative = inhibition [5] was -2.55%.
`CCc1ccc(NC(=O)Cn2c(=O)oc3cc(S(=O)(=O)N4CCCC4)ccc32)cc1` gave an activity change, negative = inhibition [1] of -4.46%, an activity change, negative = inhibition [2] of 3.16% and an activity change, negative = inhibition [3] of -1.92%. It also gave an activity change, negative = inhibition [4] of -0.873% and an activity change, negative = inhibition [5] of -20.2%.
Molecule `Cc1ccc(S(=O)(=O)c2nnn3c2nc(NCCC(C)C)c2ccccc23)cc1` has an activity change, negative = inhibition [1] of -5.21%, an activity change, negative = inhibition [2] of 0% and an activity change, negative = inhibition [3] of -0.665%. The activity change, negative = inhibition [4] was 2.95% and the activity change, negative = inhibition [5] was -4.45%.
In the case of `Cc1cnc(C2CCOCC2)n1C1CCNCC1`, the activity change, negative = inhibition [1] is reported as -2.98%, the activity change, negative = inhibition [2] is reported as -2.75% and the activity change, negative = inhibition [3] is reported as 0.378%. The activity change, negative = inhibition [4] was -2.02% and the activity change, negative = inhibition [5] was 0.024%.
`COc1cc2c(cc1O)C1(Cc3ccc4c(c3C1=O)OCO4)N(C)CC2` (stereo not given) showed an activity change, negative = inhibition [1] of 1.08%, an activity change, negative = inhibition [2] of -2.15% and an activity change, negative = inhibition [3] of 3.88%. It also gave an activity change, negative = inhibition [4] of -11.3% and an activity change, negative = inhibition [5] of -2.51%.
`CN(C)CCn1cc(S(=O)(=O)c2cccc(F)c2)c2cccnc21` was tested, and the activity change, negative = inhibition [1] was -0.484%, the activity change, negative = inhibition [2] was 2.67% and the activity change, negative = inhibition [3] was 10.3%. The activity change, negative = inhibition [4] was -11.5% and the activity change, negative = inhibition [5] was 4.15%.
`C=C1CCC2C(C)(C)CC(=O)CC2(C)C1CCC(C)CCO` (stereo not given) gave an activity change, negative = inhibition [1] of -8.69%, an activity change, negative = inhibition [2] of -11.7% and an activity change, negative = inhibition [3] of 1.01%. For the same molecule, the activity change, negative = inhibition [4] was -30.4% and the activity change, negative = inhibition [5] was -6.92%.
`CCCOC(c1cc2nccc(C(=O)O)c2[nH]1)c1ccccc1Cl` (stereo not given) gave an activity change, negative = inhibition [1] of -0.743%, an activity change, negative = inhibition [2] of -13.2% and an activity change, negative = inhibition [3] of 7.69%. The activity change, negative = inhibition [4] was -22.7% and the activity change, negative = inhibition [5] was -5.2%.
With `CCC(C(=O)N1CCN(c2ccccc2)CC1)n1ccc2cc(S(=O)(=O)N3CCCCC3)ccc21` (stereo not given) the activity change, negative = inhibition [1] was 1.84%, the activity change, negative = inhibition [2] was 0% and the activity change, negative = inhibition [3] was 1.15%. It also gave an activity change, negative = inhibition [4] of 2.08% and an activity change, negative = inhibition [5] of 1.45%.
With `NCCCNCCSP(=O)(O)O` the activity change, negative = inhibition [1] was 4.9%, the activity change, negative = inhibition [2] was 15.3% and the activity change, negative = inhibition [3] was 9.42%. For the same molecule, the activity change, negative = inhibition [4] was -6.11% and the activity change, negative = inhibition [5] was 6.58%.
Molecule `O=S(=O)(N[C@H]1CO[C@H]2[C@@H]1OC[C@@H]2n1cc(CC2CCCCC2)nn1)c1cccs1` has an activity change, negative = inhibition [1] of -4.81%, an activity change, negative = inhibition [2] of -4.94% and an activity change, negative = inhibition [3] of -1.93%. The activity change, negative = inhibition [4] was -7.59% and the activity change, negative = inhibition [5] was -9.11%.
`Cc1cc2c(F)c(Oc3ncnn4cc(OCC(C)OC(=O)C(C)N)c(C)c34)ccc2[nH]1` (stereo not given) gave an activity change, negative = inhibition [1] of -5.2% and an activity change, negative = inhibition [3] of -20.1%.
In the case of `CN(CC1CCCCO1)C(=O)c1coc(COc2ccc3c(c2)OCO3)n1` (stereo not given), the activity change, negative = inhibition [1] is reported as -2.44%, the activity change, negative = inhibition [2] is reported as -3.59% and the activity change, negative = inhibition [3] is reported as -3.25%. It also gave an activity change, negative = inhibition [4] of -5.71% and an activity change, negative = inhibition [5] of -3.42%.
Molecule `Cc1ccc([S+](=O)([O-])N2CCCC2C(=O)N2CCC(c3nc4ccncc4[nH]3)CC2)cc1` (stereo not given) has an activity change, negative = inhibition [1] of -5.71%, an activity change, negative = inhibition [2] of -5.21% and an activity change, negative = inhibition [3] of -18.2%. For the same molecule, the activity change, negative = inhibition [4] was -16.5% and the activity change, negative = inhibition [5] was -8.85%.
In the case of `CCN1/C(=C/C(C)=O)Sc2ccc(O)cc21`, the activity change, negative = inhibition [2] is reported as 9.49%, the activity change, negative = inhibition [4] is reported as -17.8% and the activity change, negative = inhibition [5] is reported as 2.45%.
`C=C[C@H]1[C@H](O[C@@H]2O[C@H](CO)[C@@H](O)[C@H](O)[C@H]2O)OC=C(C(=O)OC)[C@H]1C/C=C(/C=O)[C@@H]1C(C(=O)OC)=CO[C@@H](O[C@@H]2O[C@H](CO)[C@@H](O)[C@H](O)[C@H]2O)[C@@H]1C=C` was tested, and the activity change, negative = inhibition [1] was 0.722%, the activity change, negative = inhibition [2] was 6.14% and the activity change, negative = inhibition [3] was 9.4%. It also gave an activity change, negative = inhibition [4] of -4.98% and an activity change, negative = inhibition [5] of 1.41%.
